PMC8263776
Results are given in words; binding and its absence hold for the method and conditions named. In cells and extracts the contact can be indirect. Some entries that bind do so weakly or less than the wild type. For some assays here: Tags and fused reporters may be left off the sequences shown.

Protein sequences, listed by entry. Tags and fused reporters are not part of them.
UniProt P15384: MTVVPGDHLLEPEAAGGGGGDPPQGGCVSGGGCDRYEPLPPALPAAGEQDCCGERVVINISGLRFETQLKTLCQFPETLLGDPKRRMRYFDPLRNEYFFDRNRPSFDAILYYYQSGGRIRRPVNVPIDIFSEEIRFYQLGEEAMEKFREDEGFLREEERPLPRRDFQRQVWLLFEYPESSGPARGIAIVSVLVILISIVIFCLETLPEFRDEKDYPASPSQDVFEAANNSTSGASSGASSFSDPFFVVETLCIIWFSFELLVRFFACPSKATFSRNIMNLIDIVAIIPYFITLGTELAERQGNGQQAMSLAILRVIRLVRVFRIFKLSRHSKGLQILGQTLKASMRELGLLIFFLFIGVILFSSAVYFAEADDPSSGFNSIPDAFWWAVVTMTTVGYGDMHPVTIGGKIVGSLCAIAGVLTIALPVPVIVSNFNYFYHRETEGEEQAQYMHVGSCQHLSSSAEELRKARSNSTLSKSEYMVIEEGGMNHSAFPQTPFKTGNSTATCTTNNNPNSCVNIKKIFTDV

Legend:
KCNE4-CFP (mouse) = target: T1, KCNE4-CFP (mouse) (UniProt Q9WTW3); test: co-IP; KCNE4-CFP and KCNE4-HA in HEK-293 lysates in the presence or absence of co-expressed Kv1.3; IP with anti-tag antibody, blots against Kv1.3, KCNE4, GFP or HA
T1 sequence: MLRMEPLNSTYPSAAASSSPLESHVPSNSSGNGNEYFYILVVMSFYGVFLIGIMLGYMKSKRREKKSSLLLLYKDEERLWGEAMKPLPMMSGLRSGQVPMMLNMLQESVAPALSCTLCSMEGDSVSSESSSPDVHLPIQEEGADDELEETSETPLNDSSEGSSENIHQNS

Kv1.3-YFP (rat) = Kv1.3-YFP (rat) (UniProt P15384); test: FRET or BRET; acceptor photobleaching in fixed HEK-293 cells, CFP donor and YFP acceptor

| binding (KCNE4-CFP (mouse)) | binding (Kv1.3-YFP (rat)) | Substance |
| --- | --- | --- |
| binds | – | Kv1.3 (from UniProt P15384 1-525) |
| – | binds | Kv1.3-CFP (from UniProt P15384 1-525) |
